Experimental data from PubChem BioAssay AID488969 (Vanderbilt High Throughput Screening Facility, 2010).
Whole data set: some 110,000 compounds, median “z-score” near -0.1, cut for the highest 2% near 2. This is one part of the list. Active and inactive are the calls of the source.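 The calls were made as follows: active = z-score in the third read window above 3 or below -3; inactive = the rest.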

Biological target: Metabotropic glutamate receptor 8 (Rattus norvegicus) (UniProt P70579)
Test: rat mGluR8 modulators via GIRK flux, primary screen, cell-based, thallium flux, HTS (AID 488969)
Conditions: HEK293 rat mGluR8, GIRK (G protein-gated inwardly rectifying potassium channel) thallium flux, FluoZin2; at 10 µM; stronger effect = higher value; submaximal glutamate (EC20) added with thallium

UniProt P70579, sequence (P70579 whole entry, looked up): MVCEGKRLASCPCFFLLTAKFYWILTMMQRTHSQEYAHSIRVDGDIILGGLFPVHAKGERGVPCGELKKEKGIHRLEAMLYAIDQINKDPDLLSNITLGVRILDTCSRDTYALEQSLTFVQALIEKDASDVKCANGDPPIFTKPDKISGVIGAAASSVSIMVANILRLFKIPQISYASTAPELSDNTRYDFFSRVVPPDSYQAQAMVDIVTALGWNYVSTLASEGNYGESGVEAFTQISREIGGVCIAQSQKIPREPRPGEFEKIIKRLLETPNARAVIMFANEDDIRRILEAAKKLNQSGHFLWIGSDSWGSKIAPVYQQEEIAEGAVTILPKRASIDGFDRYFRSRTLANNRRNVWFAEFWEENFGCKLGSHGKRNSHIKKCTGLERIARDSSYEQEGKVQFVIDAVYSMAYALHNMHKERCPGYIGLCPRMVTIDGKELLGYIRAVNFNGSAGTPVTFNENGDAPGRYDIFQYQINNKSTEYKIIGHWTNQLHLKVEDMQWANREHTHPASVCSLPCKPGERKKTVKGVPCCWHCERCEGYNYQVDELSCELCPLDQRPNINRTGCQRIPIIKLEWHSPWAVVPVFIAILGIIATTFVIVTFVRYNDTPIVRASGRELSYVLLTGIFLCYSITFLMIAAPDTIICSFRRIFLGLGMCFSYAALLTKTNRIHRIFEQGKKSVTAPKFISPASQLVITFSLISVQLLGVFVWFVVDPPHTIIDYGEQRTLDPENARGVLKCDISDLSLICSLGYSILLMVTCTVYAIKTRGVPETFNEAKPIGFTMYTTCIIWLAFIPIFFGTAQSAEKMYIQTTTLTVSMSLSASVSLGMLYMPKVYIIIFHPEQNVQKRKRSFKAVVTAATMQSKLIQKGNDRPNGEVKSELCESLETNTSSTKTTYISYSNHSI

| SMILES | z-score |
| --- | --- |
| COc1ccc(/C=N/NC(=O)c2ccc(-c3ccccc3)cc2)cc1O | -0.232 |
| CCOc1ccc2oc(=O)cc(C)c2c1 | -0.0487 |
| CCOC(=O)N1CCC(=NNS(=O)(=O)c2cccc([N+](=O)[O-])c2)CC1 | 0.226 |
| COc1ccc(OC)c(-c2csc(NC(=O)C3c4ccccc4Oc4ccccc43)n2)c1 | 0.65 |
| O=c1oc2cc(Br)ccc2n1CSC1=NCCS1 | -0.0696 |
| COc1ccc(/C(C)=N/N=C2/NC(=O)CC(C(=O)O)S2)cc1 (centres undefined) | -0.203 |
| CCOC(=O)c1ccc(CNC(=O)c2n[nH]c(=O)c3ccccc23)o1 | 0.405 |
| COc1ccc(S(=O)(=O)N2N=C(C)Oc3ccccc3C2=O)cc1 | 0.107 |
| COc1ccc(N(CC(=O)Nc2cccc(N(C)S(C)(=O)=O)c2)S(C)(=O)=O)cc1OC | 0.78 |
| COc1cc(/C=N/NC(=O)c2c(-c3ccccc3)noc2C)ccc1O | -0.215 |
| C=CCSc1nccc(-c2cc(Cl)sc2Cl)n1 | -0.089 |
| Nc1cc(=O)[nH]c(SCC(=O)Nc2cc(Cl)cc(Cl)c2)n1 | 0.266 |
| C(=C\c1nnc(-c2cccs2)o1)/c1ccccc1 | -0.163 |
| CCOc1ccc(N2C(=O)Nc3ccccc3C2(O)C(=O)NCc2ccc3c(c2)OCO3)cc1 (centres undefined) | -0.0965 |
| COc1ccc(NC(=O)Nc2ccc(Br)cn2)cc1OC | -0.221 |
| CC(C)(O)c1nnn(-c2ccccc2)c1C(F)(F)F | -0.0245 |
| O=C(COc1cccc(-n2cnnn2)c1)N1CCOCC1 | 0.595 |
| S=C(NCCc1ccccn1)Nc1ccc(Cl)c(Cl)c1 | 0.684 |
| O=C(c1ccccc1)c1c[nH]cc1-c1ccccc1 | -0.371 |
| Brc1ccc(-c2nnc(-c3cccnc3)c3conc23)cc1 | 0.196 |
| C=CCNC(=S)N/N=C/c1ccc(-c2ccc(Br)cc2)o1 | 0.139 |
| O=C(C1CC1)N1CCC(c2nc(-c3ccc(S(=O)(=O)N4CCCC4)cc3)no2)CC1 | 0.261 |

| SMILES | z-score |
| --- | --- |
| CCS(=O)(=O)N1CCC(C(=O)NCCc2ccc(OC)c(OC)c2)CC1 | -0.284 |
| CCOC(=O)c1c(NC(=O)CN2CCCc3ccccc32)sc(C(C)=O)c1C | 0.00934 |
| Cc1cc2ncn(-c3ncnc4sc5c(c34)CCC(C)C5)c2cc1C (centres undefined) | -0.222 |
| COc1ccc(/C=N/NC(=O)C2CCN(c3ncc(C(F)(F)F)cc3Cl)CC2)cc1 | 0.0833 |
| Cc1ccc(NCc2nnc(SCC(=O)N3c4ccccc4Sc4ccccc43)o2)c(C)c1 | 0.287 |
| CCN(CC)C(=O)c1cnn(-c2ccccc2)c1NC(=O)c1ccco1 | 0.336 |
| COc1ccccc1Nc1nnc(SCC(=O)c2cc(C)n(CC3CCCO3)c2C)s1 (centres undefined) | -0.629 |
| CCOc1ccccc1NC1c2ccccc2C(=O)N1Cc1ccco1 (centres undefined) | 0.15 |
| CC(=O)c1ccc(NC(=S)NCCc2ccccn2)cc1 | 0.00537 |
| Cc1ccccc1CNCc1cccnc1 | -0.689 |
| CCCn1nnnc1NC(=O)c1cc(Cl)ccc1Cl | 0.462 |
| CCC(C)c1c(O)nc(SCC(=O)N2CCOCC2)[nH]c1=O (centres undefined) | 2.93 |
| Fc1ccc(N/N=C2/CC(c3ccccc3)Oc3ccccc32)c(F)c1 (centres undefined) | 0.298 |
| Cc1cc(N2C(=O)CC(N3CCN(c4ccc(C(=O)c5cccs5)cc4)CC3)C2=O)no1 (centres undefined) | -2.15 |
| c1ccc2oc(-c3ccc(Nc4nc(N5CCCCC5)nc(N5CCOCC5)n4)cc3)nc2c1 | -0.359 |
| COC(=O)C1CCN(S(=O)(=O)c2ccc(NC(C)=O)cc2)CC1 | -0.481 |
| Cc1cc(=O)oc(C)c1C(=O)Nc1cccc2ccccc12 | 0.0875 |
| COc1ccc(-c2cnc3nc[nH]c(=O)c3n2)cc1 | -0.0157 |
| CC1CCCC(C)N1C(=O)CSc1nnnn1-c1cccc2c1CCCC2 (centres undefined) | -0.621 |
| O=C(CSc1ncccc1-c1nc2ccccc2[nH]1)N1CCN(c2ccccc2F)CC1 | -0.631 |
| CCOC(=O)CN1NC2(CCCC(C)C2)NC1=S (centres undefined) | -0.128 |
| COc1ccc(C2C(C#N)=C(N)OC(C(C)(C)C)=C2C#N)cc1OC (centres undefined) | -0.133 |

| SMILES | z-score |
| --- | --- |
| COc1ccc(-c2nnc(N(C)C(=O)c3ccno3)s2)cc1 | -0.105 |
| CCN(CC)C(=O)CCSc1nnc(-c2ccncc2)o1 | 0.522 |
| Cc1nnc(N/N=C/c2ccc(O)c([N+](=O)[O-])c2)[nH]c1=O | 0.0995 |
| Cc1cccc(CCNC(=O)c2cc(=O)[nH]c3ccc(Br)cc23)c1 | -0.576 |
| Cc1cc(C)cc(Nc2nc(-c3ccc(S(=O)(=O)N4CCCC4)cc3)cs2)c1 | -0.0957 |
| Cc1cccc(N(CC(=O)Nc2c(C)n(C)n(-c3ccccc3)c2=O)S(C)(=O)=O)c1C | -0.222 |
| O=C(N/N=C/c1ccc([N+](=O)[O-])o1)c1cn(-c2ccccc2)nc1-c1ccccc1 | -0.0113 |
| Cc1sc2nc(SCC(=O)N(C)C)[nH]c(=O)c2c1C | 1.08 |
| CCOC(=O)c1cc(NC(=O)Nc2ccccc2OC)c(C)nc1C | -0.0922 |
| Cc1ccc(C2CN(C)C3(C(=O)Nc4ccccc43)C23COc2ccccc2C3=O)cc1 (centres undefined) | -0.0418 |
| CN(C(=O)COc1nnc(-c2cccs2)c(-c2cccs2)n1)c1ccccc1 | -0.423 |
| O=C1CCC([N+](=O)[O-])C(c2ccc(Cl)cc2Cl)N1 (centres undefined) | -0.219 |
| COc1ccc(-n2c(=O)c3ccccc3n(Cc3ccc(F)cc3)c2=O)cc1OC | -0.315 |
| COc1cccc(-n2c(SCC(=O)N3CCOCC3)nnc2-c2c[nH]c3ccccc23)c1 | -0.89 |
| O=C(O)c1ccc(Cl)c(S(=O)(=O)NCC2CCCO2)c1 (centres undefined) | -0.0841 |
| CC(=O)c1cccc(NC(=O)c2ccc(N(C)S(C)(=O)=O)cc2)c1 | 0.255 |
| O=C(Nc1ccc(N2CCOCC2)cc1N1CCOCC1)c1cccs1 | -0.508 |
| CC(=O)C1C(c2ccco2)c2c(noc2C)CC1(C)O (centres undefined) | 0.397 |
| Cc1cc(/C=C2/SC(=S)N(c3cccc(Cl)c3)C2=O)c(C)n1-c1cccnc1 | -0.217 |
| CCCC(C)NC(=O)c1nc(-c2ccccc2)n(-c2ccccc2)n1 (centres undefined) | -2.97 |
| CN1C(=O)C2(C(C#N)=C(N)N(c3cc(Cl)cc(Cl)c3)C3=C2C(=O)CCC3)c2ccccc21 (centres undefined) | active: -4.03 |
| COc1cccc(C2CC(=O)NC3=C2C(=O)CCC3)c1 (centres undefined) | -0.128 |

| SMILES | z-score |
| --- | --- |
| COc1cc(NC(=O)NC(C)(C(F)(F)F)C(F)(F)F)cc(OC)c1OC | 0.919 |
| CC(=O)N/C(=C\c1ccc(F)cc1)C(=O)NC(Cc1c[nH]c2ccccc12)C(=O)O (centres undefined) | 0.0629 |
| CSc1nc(-c2ccco2)cc(C(F)(F)F)c1C#N | 0.173 |
| CCC(C(=O)O/N=C(\N)c1ccccc1)c1ccccc1 (centres undefined) | 0.0275 |
| Cn1c(=O)cc(SCC(=O)N2CCCC2)c2ccc(Cl)cc21 | -0.0795 |
| COC(=O)c1cccc(N(C(=O)c2cnccn2)C(C(=O)NCc2ccccc2)c2ccco2)c1 (centres undefined) | -0.473 |
| O=C(CNC(=O)c1ccco1)NCC(=O)OCc1cccc(C(=O)Oc2ccccc2)c1 | -1.04 |
| CC1CC(NC(=O)C2(C)CC2(Cl)Cl)CC(C)(C)C1 (centres undefined) | -0.241 |
| Cc1ccccc1NC(=O)C1C2CCCC1C2c1ccccc1 (centres undefined) | 0.216 |
| CC(C)Oc1ccc(C2CC(=O)N(c3ccccc3)C2=O)cc1 (centres undefined) | 2.33 |
| O=C(Nc1ccccc1)Nc1ccc(F)c([N+](=O)[O-])c1 | 0.304 |
| O=C(CNS(=O)(=O)/C=C/c1ccccc1)OCC(=O)N1CCC(Cc2ccccc2)CC1 | -0.27 |
| O=C(NC1CCSC1=O)c1ccc(Oc2cccc(C(F)(F)F)c2)nc1 (centres undefined) | 0.00898 |
| O=C(OCc1nc2ccccc2s1)C1CCN(S(=O)(=O)c2cccs2)CC1 | 0.023 |
| CN1CCN(C(=O)/C(=C\c2cccs2)NC(=O)c2ccco2)CC1 | -0.139 |
| O=C(NCC(c1ccco1)N1CCCC1)c1ccc(Cl)cc1 (centres undefined) | -0.378 |
| COc1ccccc1NC(=O)c1nnn(CC(=O)Nc2ccccc2)c1N | 0.694 |
| CC(C)c1ccc(S(=O)(=O)/N=C2/C=C(Sc3ncn[nH]3)C(=O)c3ccccc32)cc1 | -0.192 |
| COCCCNC(=O)C1CCN(C(=O)Nc2ccc(Cl)cc2)CC1 | -0.486 |
| CCOC(=O)c1c(NCC2CCCO2)c2ccccc2[nH]c1=O (centres undefined) | -0.0574 |
| O=C(c1ccco1)N1CCN(C(=O)C2CCCO2)CC1 (centres undefined) | -0.365 |
| CSCCC(NS(=O)(=O)c1ccc(Cl)cc1)C(=O)OCc1c(Cl)cccc1Cl (centres undefined) | -0.0757 |

| SMILES | z-score |
| --- | --- |
| Nc1c(C(=O)c2ccc(Br)s2)oc2ccccc12 | 1.19 |
| Cn1c(SCC(=O)N2CCc3ccccc3C2)nnc1-c1cccs1 | 0.491 |
| S=C(Nc1cccc(Cl)c1)N1CCN(Cc2ccccc2)CC1 | -0.391 |
| CCOC(=O)c1cc(-c2ccc(C)cc2)n(CCC(=O)NCCN(C)C)c1C | 0.178 |
| Cc1ccc(Cn2ncc3c(N4CCN(c5ccc(C)cc5)CC4)ncnc32)cc1 | -0.0986 |
| CC(=O)COc1cc(C)cc2oc(=O)c(C)c(C)c12 | -0.136 |
| O=C(COc1ccccc1)NCCc1cn2ccsc2n1 | 0.183 |
| COc1cc(NC(=S)NC(C)=O)ccc1NC(=O)C(C)C | -0.0237 |
| CC1(C)CC(=O)C2=C(C1)OC(N)=C(C#N)C2C1CC=CCC1 (centres undefined) | -0.081 |
| O=C(CCSc1ccc(Cl)cc1)NC12CC3CC(CC(C3)C1)C2 | -0.404 |
| c1ccc(Cn2nnc3c(N4CCCC4)ncnc32)cc1 | -0.0405 |
| CCOC(=O)COc1ccc(S(=O)(=O)NCc2ccncc2)cc1 | 1.19 |
| Cc1cccnc1Nc1nc(-c2ccc(O)c(O)c2)cs1 | -0.0449 |
| CCOC(=O)N1CCN(C(=O)CN(c2cccc(OC)c2)S(C)(=O)=O)CC1 | 0.147 |
| Cc1ccc(CN2C(=O)CCC2C(=O)N2CCN(c3ccc(F)cc3)CC2)cc1 (centres undefined) | 0.414 |
| CSc1nc2ccccc2n1CC(=O)Nc1cc(C(F)(F)F)ccc1N1CCOCC1 | -0.266 |
| Cc1ccc(Oc2nnc(-c3ccc(C)cc3)c3ccccc23)cc1 | -0.103 |
| Cc1cc(/C=N/n2cnnc2)c(C)n1-c1ccc(OCc2ccc(Cl)cc2)cc1 | 0.729 |
| NC(=O)CNC(=O)[C@@H]1CC2(CC(c3ccc(Cl)cc3)=NO2)CN1C(=O)c1ccccc1 (some centres undefined) | -0.0997 |
| Cc1ccccc1OCC(=O)N(Cc1nc(-c2ccccc2)no1)C(C)C | -0.0322 |
| CC(=O)c1cn(CC(=O)NCc2ccc3c(c2)OCO3)c2ccccc12 | -0.0873 |
